Measured values: PubChem BioAssay AID2546 (National Center for Advancing Translational Sciences (NCATS), 2010)
The whole screen tested about 310,000 compounds, of which about 11,000 (3.5%) were called active. This list was built around the results that the source calls inconclusive (neither active nor inactive); the mix of calls is not that of the screen. Calls come from the whole dose curve; as a rule, active = well fitted inhibition curve with a large enough effect; inconclusive = small, poorly fitted or top-dose-only effect, or effect the other way; inactive = flat fitted curve, though single readings scatter. Potencies of inconclusive entries are left out as doubtful fits.
% is set by controls: 0 for no effect and ±100 for the full control effect; potency is the fitted concentration of half-maximal effect; tags give direction and shape of the fitted curve.

Assay: VP16 counterscreen qHTS for inhibitors of ROR gamma transcriptional activity;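 note: Gal4-VP16 expression switched on by copper sulfate through the metallothionein promoter; nearly all actives have a fitted effect of over 50% in size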
Conditions: Drosophila S2 Gal4-VP16 UAS-luciferase, luminescence, 20 h; activity, negative = inhibition: at 53.6 µM (top of the series)
In the case of `CCOCCCNC(=O)C(NC(=O)Cc1cccs1)c1ccc(Cl)cc1` (configuration not stated), the Potency is reported as active: 12.6 µM.
With `CCn1c(SCC(=O)NNC(=S)Nc2ccccc2)nnc1-c1ccc(Cl)cc1` the Potency was active: 1.26 µM.
With `CSc1ccc(/C=C/C(=O)c2ccc(O)cc2)cc1` the Potency was active: 1.12 µM.
For `Cc1ccc(C(=O)NC(=S)N2CCCC2)cc1`, the Potency was active: 5.01 µM.
In the case of `COC(=O)c1ccc(C(NC(=O)OCc2ccccc2)/C(F)=C/[C@@H](C)C(=O)NCc2ccc(OC)c(OC)c2)cc1` (some centres not stated), the Potency is reported as inconclusive [inhibitor, single point].
In the case of `Cc1ccc(C(=O)Nc2nc(-c3ccc([N+](=O)[O-])cc3)cs2)o1`, the Potency is reported as inconclusive [activator, single point].
For `CC1=C(C(=O)Nc2ccccc2F)C(c2cccs2)NC(=S)N1` (configuration not stated), the activity, negative = inhibition was inactive: -10.5% [at 10 µM].
For `S=c1[nH]nc(C2CCCCC2)n1/N=C/c1c(Cl)cccc1Cl`, the Potency was inconclusive [inhibitor, single point].
In the case of `CC1=CC(=O)C=C(C)C1=NOC(=O)c1cccc([N+](=O)[O-])c1`, the Potency is reported as inconclusive [inhibitor, single point].
For `CCCC[n+]1ccn(C2=C([O-])c3ccccc3C(=O)/C2=N\S(=O)(=O)c2ccc(Cl)cc2)c1`, the Potency was inconclusive [inhibitor, single point].
In the case of `O=[N+]([O-])c1c(Nc2ccc(O)cc2)cc(Cl)c2nonc12`, the Potency is reported as active: 4.47 µM.
For `Cc1ccc(N2C(=O)C(CC(=O)Nc3cccc(F)c3)N(C3CC3)C2=O)cc1` (configuration not stated), the Potency was inconclusive [activator, single point].
In the case of `Oc1ccc(N=Nc2ccc3c(c2)OCCO3)c(O)c1`, the Potency is reported as active: 10 µM.
For `CCCCNC(=S)NNC(=O)c1ccco1`, the Potency was inconclusive [inhibitor, single point].
With `Clc1ccc2nc(N3CCNCC3)nc(-c3ccccc3)c2c1` the Potency was inconclusive [inhibitor, single point].
In the case of `O=C(CNC(=O)c1ccccc1Br)N/N=C\c1cc([N+](=O)[O-])cc(Br)c1O`, the Potency is reported as active: 7.94 µM.
With `O=C(O)CC1S/C(=N/N=C/C=C/c2ccccc2)NC1=O` (configuration not stated) the Potency was “inactive”.
In the case of `Oc1ccc(-c2cn3ccccc3n2)cc1`, the Potency is reported as inconclusive [inhibitor, single point].
With `Cc1cccc(N2CCN(c3nc4ccc(Cl)cc4n4cnnc34)CC2)c1C` the Potency was inconclusive [inhibitor, single point].
In the case of `Brc1ccccc1OCCCn1cnc2ccccc21`, the Potency is reported as inconclusive [inhibitor, single point].
With `O=C(Nc1nc2ccccc2n1CCN1CCOCC1)c1cn(-c2ccccc2)nc1-c1ccccc1` the Potency was active: 1.12 µM.
For `Cc1cccc(NC(=S)NC(=O)c2ccco2)n1`, the Potency was inconclusive [inhibitor, single point].
With `Cc1cc(C)n(CC(O)Cn2c3ccc(Br)cc3c3cc(Br)ccc32)c(=O)n1` (configuration not stated) the Potency was inconclusive [inhibitor, single point].
For `NC(=O)Cc1ncc(C(F)(F)F)cc1Cl`, the Potency was “inactive”.
In the case of `Fc1ccc(Nc2nc(NCc3ccco3)c3ccccc3n2)cc1`, the Potency is reported as inconclusive [inhibitor, single point].
With `CCOc1ccc(NC(=S)N(Cc2ccc(Cl)cc2)Cc2ccco2)cc1` the Potency was inconclusive [inhibitor, single point].
In the case of `COc1ccc(/C=C/C(=O)NC(=S)NNC(=O)c2ccco2)cc1`, the Potency is reported as inconclusive [inhibitor, single point].
With `COc1ccc(N=CC2=C(O)c3ccccc3C2=O)c(OC)c1` the Potency was active: 3.98 µM.
With `CCOC(=O)Cn1c(=NC(=O)c2nc3ccccc3s2)sc2cc(S(N)(=O)=O)ccc21` the Potency was inconclusive [inhibitor, partial curve].
In the case of `N#Cc1c2n(c3c(=O)n(Cc4ccccc4Cl)cnc13)CCCCC2`, the Potency is reported as “inactive”.
For `Cc1ccc(NC(=O)C(C)c2cccc(C(=O)c3ccccc3)c2)cc1` (configuration not stated), the Potency was active: 7.08 µM.
For `CC(C)=CCC/C(C)=C/C=N/NC(=O)c1ccc([N+](=O)[O-])cc1`, the Potency was active: 2.82 µM.
With `Cc1ccc(C2=Nc3ccccc3SC(c3cccc([N+](=O)[O-])c3)C2)cc1` (configuration not stated) the Potency was active: 12.6 µM.
For `COc1ccc(OC)c(/C=N/NC(=O)c2[nH]nc3c2CCc2ccccc2-3)c1`, the Potency was inconclusive [inhibitor, single point].
For `O=C(OCC(=O)N1CCN(c2ccccc2)CC1)c1cnc(Cl)c(Cl)c1`, the Potency was “inactive”.
In the case of `Cc1ccc(C(=O)Oc2cccnc2)cc1[N+](=O)[O-]`, the Potency is reported as inconclusive [inhibitor, single point].
In the case of `Cc1ccc(NC(=O)Cn2c(=O)oc3cc(S(=O)(=O)N4CCC(C)CC4)ccc32)cc1C`, the Potency is reported as active: 20 µM.
In the case of `CN(Cc1ccccc1)C(=O)c1nc2ccccn2c1CN1CCc2sccc2C1`, the Potency is reported as inconclusive [activator, single point].
In the case of `O=S(=O)(NCCCCCNS(=O)(=O)c1ccccc1)c1ccccc1`, the Potency is reported as inconclusive [inhibitor, single point].
In the case of `CC(C)(C)c1cc(C(=O)NNc2cc(C(F)(F)F)ccc2Cl)n(Cc2ccccc2)n1`, the Potency is reported as active: 8.91 µM.
With `CCC(Cc1ccccc1)n1c(=S)[nH]c2ccccc2c1=O` (configuration not stated) the Potency was inconclusive [activator, single point].
With `N#Cc1c(N2CCOCC2)nsc1-c1ccccc1` the Potency was “inactive”.
With `Cc1cccc(N2CCN(C(=O)c3cccc(S(=O)(=O)N4CCc5ccccc5C4)c3)CC2C)c1` (configuration not stated) the Potency was inconclusive [inhibitor, single point].
In the case of `Cc1cccc2nc(CSc3ccc(Cl)cc3)cn12`, the Potency is reported as inconclusive [inhibitor, partial curve].
In the case of `S=C(NCCc1ccccc1)NC1CC1`, the Potency is reported as inconclusive [inhibitor, single point].
With `CN(C)c1ccc(/C=N/NC(=S)NCc2ccco2)cc1` the Potency was active: 5.01 µM.
For `CCOCCCNC(=O)c1ccc(N2CC3CC(C2)c2cccc(=O)n2C3)c(NC(=O)Nc2cccc(OC)c2)c1` (configuration not stated), the Potency was “inactive”.
